Hit rate of the full screen: of about 220,000 compounds, about 5,700 (2.6%) were called active. The inconclusive results got no clear call from the source; some entries with a clear call stand among them for comparison. The call rests on the fitted dose curve; in most records, active means well fitted inhibition curve with a large enough effect; inconclusive means small, poorly fitted or top-dose-only effect; inactive means no such curve, though single readings can be large or run the other way. Where the call is inconclusive, the potency comes from a doubtful curve fit.
molecular target: Lysine-specific demethylase 5B (Homo sapiens) (UniProt Q9UGL1); assay: Primary screen for KDM5B Histone Demethylases FDH-coupled qHTS; details: FDH-coupled NADH fluorescence (FDH is formaldehyde dehydrogenase); activity change, negative = inhibition: at 57.7 µM (top of the series) unless noted; further: nearly all actives have a fitted effect of over 70% in size; on activity change, negative = inhibition: 0% is about no effect
How it was run: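 Measured: NADH fluorescence change, 30 min, RT. System: KDM5BΔAP 200 nM final, H3K4me3 peptide, α-KG, Fe(II), ascorbate, NAD⁺ plus FDH, pH 7.5 HEPES. Compounds: titrated, 10 min pre-incubation with enzyme.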
Potency means the concentration at half of the fitted maximal effect; tags describe the fitted curve by direction and shape.

UniProt Q9UGL1, sequence (Q9UGL1 whole entry, looked up): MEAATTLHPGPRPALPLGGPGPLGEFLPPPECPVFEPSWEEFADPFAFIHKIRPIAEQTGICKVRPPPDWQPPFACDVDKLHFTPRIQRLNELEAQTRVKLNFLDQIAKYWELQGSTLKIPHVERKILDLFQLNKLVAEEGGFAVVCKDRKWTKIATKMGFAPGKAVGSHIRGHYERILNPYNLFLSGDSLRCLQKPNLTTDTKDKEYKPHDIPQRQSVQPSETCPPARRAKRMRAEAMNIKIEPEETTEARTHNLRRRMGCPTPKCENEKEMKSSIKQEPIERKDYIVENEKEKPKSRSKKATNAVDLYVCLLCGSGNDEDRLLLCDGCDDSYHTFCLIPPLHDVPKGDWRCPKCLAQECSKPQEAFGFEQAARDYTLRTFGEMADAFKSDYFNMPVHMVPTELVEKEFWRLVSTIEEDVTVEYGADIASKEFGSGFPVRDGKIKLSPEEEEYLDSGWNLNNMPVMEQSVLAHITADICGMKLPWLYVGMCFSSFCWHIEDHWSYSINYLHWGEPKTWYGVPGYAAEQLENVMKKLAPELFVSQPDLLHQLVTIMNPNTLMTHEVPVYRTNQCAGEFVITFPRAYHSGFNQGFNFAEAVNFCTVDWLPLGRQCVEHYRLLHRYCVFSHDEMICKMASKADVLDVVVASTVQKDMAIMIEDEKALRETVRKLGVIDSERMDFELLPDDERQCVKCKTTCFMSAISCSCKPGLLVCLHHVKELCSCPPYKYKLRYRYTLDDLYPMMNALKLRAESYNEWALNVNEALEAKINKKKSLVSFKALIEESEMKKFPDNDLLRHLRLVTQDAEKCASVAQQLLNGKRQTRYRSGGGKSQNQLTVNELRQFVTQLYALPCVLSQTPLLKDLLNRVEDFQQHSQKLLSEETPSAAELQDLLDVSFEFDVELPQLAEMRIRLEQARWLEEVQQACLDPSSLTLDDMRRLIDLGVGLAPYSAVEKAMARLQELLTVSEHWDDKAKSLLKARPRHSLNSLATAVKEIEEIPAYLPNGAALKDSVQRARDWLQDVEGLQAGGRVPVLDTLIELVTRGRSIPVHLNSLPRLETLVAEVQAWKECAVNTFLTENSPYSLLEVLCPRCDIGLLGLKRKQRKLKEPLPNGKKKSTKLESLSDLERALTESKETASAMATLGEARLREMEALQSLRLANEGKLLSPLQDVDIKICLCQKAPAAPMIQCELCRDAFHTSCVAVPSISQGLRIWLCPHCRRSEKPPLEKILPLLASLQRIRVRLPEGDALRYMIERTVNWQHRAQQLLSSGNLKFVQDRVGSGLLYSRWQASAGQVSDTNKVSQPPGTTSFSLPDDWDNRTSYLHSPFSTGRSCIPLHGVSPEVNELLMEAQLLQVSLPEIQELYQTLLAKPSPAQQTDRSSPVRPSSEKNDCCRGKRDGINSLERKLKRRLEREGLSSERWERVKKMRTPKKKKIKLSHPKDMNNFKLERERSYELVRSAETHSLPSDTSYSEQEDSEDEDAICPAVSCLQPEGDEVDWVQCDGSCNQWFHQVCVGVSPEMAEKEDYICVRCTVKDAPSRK

Row | SMILES | Potency | activity change, negative = inhibition
1 | CC(C)CCNC(=O)c1cc2cc(S(=O)(=O)N3CCCCC3)ccc2n1C | inconclusive: 12.6 µM [inhibitor, partial curve, poor fit] | –
2 | CCc1cccc(NC(=O)c2nc3ccccc3nc2N2CCCC2)c1 | inactive | –
3 | CN(C(=O)COc1ccc2ccc(=O)oc2c1)C1CCS(=O)(=O)C1 (centres undefined) | inconclusive: 25.1 µM [inhibitor, partial curve, poor fit] | –
4 | CCOCC1(C)COc2ccc(C(=O)Nc3ccc(F)c(Cl)c3)cc2N1 (centres undefined) | inconclusive: 20 µM [inhibitor, partial curve, poor fit] | –
5 | CCS(=O)(=O)Nc1ccc(C2(C(=O)NC(C)c3ccccc3)CCCCC2)cc1 (centres undefined) | inconclusive: 15.8 µM [inhibitor, partial curve] | –
6 | N#Cc1cccc(COC(=O)c2c[nH]c3ccccc23)c1 | inactive | –
7 | COc1ccc(-c2cc3c(=O)n(CCNC(=O)c4cc(F)cc(F)c4)ccn3n2)cc1 | inconclusive: 14.1 µM [inhibitor, partial curve] | –
8 | CC(C)c1nc2oc3c(NCCN(C)C)ncnc3c2c2c1COC(C)(C)C2 | inconclusive: 10 µM [inhibitor, partial curve, poor fit] | –
9 | N#Cc1nc(-c2ccco2)oc1NCc1ccc(Cl)cc1 | inconclusive: 10 µM [inhibitor, partial curve, poor fit] | –
10 | CCc1ccc(CN2CC3ON=C(C(=O)O)C3C2)cc1 (centres undefined) | active: 112 µM | –
11 | COc1ccccc1/C=C/C=N/NC(=O)c1cccs1 | inconclusive: 25.1 µM [inhibitor, single point] | –
12 | COCCNc1oc(-c2ccccc2)nc1S(=O)(=O)c1ccc(Br)cc1 | inconclusive: 39.8 µM [inhibitor, single point] | –
13 | CCCCN(CC)CCCNC(=O)c1cc2c(=O)[nH]c3ccccc3c2n1C | inconclusive: 31.6 µM [inhibitor, partial curve, poor fit] | –
14 | COc1ccc(NC(=O)CCCSc2nc(-c3ccco3)cc(C(F)(F)F)n2)cc1OC | – | inconclusive: -33.3% [inhibitor] [at 11.5 µM]
15 | COc1cccc(C(=O)Nc2cccc(OCc3cc(=O)n4c5c(sc4n3)CCCC5)c2)c1 | inconclusive: 2.51 µM [inhibitor, partial curve, poor fit] | –
16 | Cc1nn(CN2CCN(S(=O)(=O)c3ccc(Cl)cc3)CC2)c(=O)c2ccccc12 | inactive | –
17 | CC(C)CC(NC(=O)C1CC1)c1cccs1 (centres undefined) | inactive | –
18 | O=C(NCc1ccc(OC(F)F)cc1)c1cc(Cl)ccc1-n1cnnn1 | inactive | –
19 | COc1cccc(C(=O)OCc2nc(-c3ccc(OC(F)(F)F)cc3)no2)c1 | inactive | –

From PubChem BioAssay AID1347165 (National Center for Advancing Translational Sciences (NCATS), 2019)
